# Assay results as given in ChEMBL document CHEMBL4888484, “Replenishing the malaria drug discovery pipeline: Screening and hit evaluation of the MMV Hit Generation Library 1 (HGL1) against asexual blood stage Plasmodium falciparum ,using a nano luciferase reporter read-out” (2022).
# About 540 (0.36%) of roughly 150,000 compounds showed an effect of 50% or more. This is one part of the list.
# System: Plasmodium falciparum
# Experiment: Primary screen in NF54 nanoGlo assay, in single point, at 2uM, 72h; a lower Z score goes with more inhibition
# Format: functional, Erythrocyte
# Settings: timepoint 72 hour
SMILES,% Inhibition,Z score
Cc1ccc(NCn2c(=S)oc3ccccc32)nc1,-37%,4.29
Cc1n[nH]nc1-c1nc(-c2ccncc2)nn1[C@H]1CCS(=O)(=O)C1,-6%,0.87
COc1cccc(C(=O)NC[C@H]2CCCN(Cc3cccc4cccnc34)C2)c1OC,10%,-1.86
Cc1nn(C)c(C)c1S(=O)(=O)N[C@@H](C)C1CC1,9%,-1.8
CN(CC1COCCO1)C(=O)CC1(c2cccc(F)c2)CC(=O)N(Cc2cccnc2)C1=O (stereo unspecified),-14%,1.81
COCCN(CCCOc1ccc(C(N)=O)cc1)CCOc1ccccc1F,2%,-0.37
c1ccc(CCCN2CCCC[C@@H]2Cn2cncn2)cc1,-2%,0.23
Cn1ncc(CN2CCC[C@H](c3n[nH]c(C4CCCCC4)n3)C2)c1C(F)(F)F,-10%,1.34
CCCN(CCC)c1nc(N)nc(C#N)n1,-3%,0.32
CN(C)C(=O)c1cnc(-c2ccc3c(c2)CCO3)s1,9%,-1.01
O=c1ccc(CN2CCN(c3ccccc3F)CC2)cn1CC1CC1,2%,-0.44
Cc1ccc(C(=O)N2CCC(c3nc(-c4ccc5c(c4)OCO5)no3)CC2)cc1,6%,-0.87
CCCN(Cc1nccn1C)C(=O)Nc1ccc2c(c1)O[C@@H](C)C(=O)N2C,-8%,1.1
N#Cc1cccc(C(=O)NC2(Cc3ccccc3Br)CC2)n1,-5%,0.78
CC(NC1CCN(C2CCCCC2O)CC1)c1ccsc1 (stereo unspecified),7%,-0.93
CCOC[C@H]1CCN(C(=O)C2CCCCCC2)C1,-9%,1.26
CCCN(CCC)C[C@H](O)COc1c(Cl)cccc1Cl,-6%,0.67
C[C@@H](Cc1ccco1)NC(=O)NC1CC1,-11%,1.16
COc1ccc(S(=O)(=O)N2CC(C)N(C(=O)N(C)C)C2C)cc1 (stereo unspecified),-6%,0.72
CCc1nc(C)ncc1C(=O)OCc1nccn1Cc1ccccc1,31%,-1.06
COCc1nncn1C1CCN(C(=O)Cc2ccc(Cl)cc2)CC1,-2%,0.43
Cn1ccnc1CN1CCc2[nH]nc(-c3ccc4c(c3)OC(F)(F)O4)c2C1,4%,-0.49

SMILES,% Inhibition,Z score
Cc1ccn2c(CNCC3CN(C(=O)c4ccccc4)C4CCN3C4)cnc2c1 (stereo unspecified),4%,-0.71
N#Cc1cccc(N(C(=O)COC[C@H]2CCCO2)C2CCC2)c1,-7%,1.25
CC[C@H](NC(=O)c1ncccc1C)C1CC(O)C1 (stereo partly specified),-15%,1.37
Cc1ccc(C)c(-n2ncnc2[C@@H]2C[C@@H](O)CN2)c1,0%,-0.04
COc1cccn(CC(=O)N(C)[C@@H](C)c2ccon2)c1=O,1%,-0.09
Cc1ccc2c(c1)C(c1ccccc1)=NNC(c1ccccc1)=N2,-8%,1.03
O=C(CCc1ccccc1)Nc1ccc2c(c1)C(=O)N(C1CCCCC1)C2=O,-8%,0.93
Cc1cnc([C@H]2CCN(C(=O)C(C)C)C2)n1Cc1ccc(F)cc1,-9%,1.41
Cn1ncnc1CCNC(=O)c1ccc(C#N)nc1,-15%,1.96
COC(=O)N[C@@H](CC(C)C)C(=O)Nc1cc(OC)ccc1Cl,-7%,0.68
CCCN(C[C@H]1CCCCO1)c1nc(C)nc2c1cnn2C,-9%,0.97
CC[C@H](C)N(CC(=O)N(Cc1ccccc1)Cc1cccs1)C(=O)c1cccc(Cl)c1,0%,0.02
O=C(O)Cn1cc(NC(=O)c2cc3c(s2)CCCC3)cn1,-12%,2.24
COc1ccc2ccc(O)c(CN3CCCc4cc(S(=O)(=O)N5CCCC5)ccc43)c2c1,-3%,0.54
CCN(CC)CCNC(=O)c1c(CC2CCCC2)n(CCOC)c(C)cc1=O,-1%,0.28
CCOc1ccc(N2CC(C(=O)N3CC(C(=O)OC)Oc4ccccc43)CC2=O)cc1 (stereo unspecified),3%,-0.3
CCc1nnc(CN(C)C(=O)c2cnc(-c3ccc(C)cc3)nc2O)o1,-8%,1.47
Cc1nc[nH]c1-c1cc(-c2ccc(O)cc2F)nc(N)c1C#N,-13%,1.89
O=C(OCc1ccccc1)N1CCC(S(=O)(=O)NC2CCCN(c3ncccn3)C2)C1 (stereo unspecified),-12%,1.25
Cc1c(CN2CC[C@H](CNC(=O)C3CCC3)C2)[nH]c2ccc(F)cc12,-8%,1.75
CCCN1C[C@@H]2Oc3cc(-c4cccnc4)ccc3S(=O)(=O)NC[C@H](O)CN(C)[C@@H]2C1,-6%,0.72
